Sequences with one replicate were seen in a single cluster, so their values are uncertain.
System: ATP
Test: switch fluorescence ratio, 500 uM ATP over buffer (Cy3 cluster intensity, sum of 5 cycles each) (fold (ratio)); higher = stronger signal-on switching upon ATP binding; sequences stand for … in TCGTCGGCAGCGTCAGATGTGTATAAGAGACAGTTTTTTTTTTTTTTTTTTTTTTTTT…TC
Settings: aptamer strand: ATP DNA aptamer (quencher-CACCTGGGGGAGTATTGCGGAGGAAGG + anchor), 100 nM annealed; ATP concentration: 500 uM; one replicate
Method in brief: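 Switching-strand clusters labelled with Cy3 on a modified Illumina MiSeq flow-cell were annealed to 100 nM quencher-labelled ATP aptamer, imaged in selection buffer, and re-imaged after 15 min with 500 uM ATP at 22 °C. This was done over five cycles with NaOH stripping and re-annealing in between. The fluorescence ratio is summed target-cycle over summed buffer-cycle Cy3 intensity per cluster, averaged per switch-domain sequence, excluding clusters outside 100-1000 RFU.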
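Note: ATP exposure 15 min at 22 °C before imaging.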

| Sequence | switch fluorescence ratio |
| --- | --- |
| GTTAATTCAT | 0.982 |
| GCCTTTAGAA | 1.04 |
| GTTGGGCCCC | 0.993 |
| GAGGTACGGA | 0.993 |
| CCCAGTTCAC | 1.05 |
| TAGGGCTTTT | 0.993 |
| TAATTTGGCA | 0.999 |
| CTTTATGGTG | 1.22 |
| GACTTTTTCC | 1.09 |
| TCGTTGTGG | 0.991 |
| AACGTTAACT | 0.985 |
| ACCTCGTAAG | 1.02 |
| TGATCTTCAG | 1.03 |
| TATTTATTGA | 0.993 |
| GAGGGTTTTC | 1.04 |
| ATGCAGTTCC | 1.04 |
| CTGGGTTGTG | 0.946 |
| GAATGGAGTT | 0.964 |
| AAAGTGAAGA | 1 |
| CTAGTCGAGA | 0.973 |
| CGTAACCGGT | 0.998 |
| ATTACAGGCT | 1 |
| TCGAAGTGCG | 0.991 |

| Sequence | switch fluorescence ratio |
| --- | --- |
| AAGAATGT | 1.06 |
| AATAAGCGCT | 1.04 |
| AAACGCCTGA | 1.04 |
| TACTTACCTA | 1.27 |
| GCGGCTTCAT | 0.994 |
| ATCCGGCATC | 1.37 |
| TCTTGCTCAA | 1.04 |
| CGTTCTTTAT | 1.03 |
| CGGAAACGAT | 1.02 |
| CAGAGTACCC | 1.06 |
| TTTTAGGACT | 0.998 |
| ATGTGGAGCG | 1.03 |
| GCATCAAACG | 1.03 |
| AAGTGTTGTA | 1.01 |
| CCATTCGAGT | 1.03 |
| TTTCCCGGTA | 1.04 |
| GCCGTTTTCA | 1.02 |
| GGGACATGAT | 0.998 |
| AAACGTAGCT | 1.04 |
| GTATGCGCGG | 0.957 |
| ACAACTAATC | 1.06 |
| GCGTGAATTC | 1.06 |
| AATGCTTGCC | 0.996 |

| Sequence | switch fluorescence ratio |
| --- | --- |
| TAATCCCCTG | 1.04 |
| TGGGTGCGGG | 0.942 |
| TTAAGAGAGT | 0.984 |
| AGCGTTCCAA | 0.996 |
| AAAGCAAACG | 1.04 |
| CCGTGTGTTA | 1.03 |
| TGGAGGCTGC | 1.02 |
| CCTCAAACCT | 1.94 |
| TAACTTTTGC | 0.996 |
| TCAAAGATT | 0.991 |
| TTCTTAATGG | 1.05 |
| ACCGAGCGTT | 1.11 |
| GCTTTGGAGG | 1 |
| CGTAAAAGTC | 0.975 |
| AAGAAATCAT | 0.981 |
| GAGCGAGAAA | 0.987 |
| GAATAACTGT | 0.989 |
| GAACCTTGGG | 0.988 |
| CCGAGTGAAT | 1.99 |
| ACTGTTTGAT | 1.02 |
| TCACCGTTCC | 2.07 |
| ATTAAATAGG | 0.975 |
| CTGGGGCAC | 0.983 |

| Sequence | switch fluorescence ratio |
| --- | --- |
| TTGATGTGCC | 1.03 |
| ACTGAGCATT | 1.18 |
| GTTACGAGTC | 0.993 |
| TCGTATATCT | 1.03 |
| CGGGTCTGCA | 1.04 |
| AGTTGGGT | 0.998 |
| ACTAGTTGGA | 1.01 |
| CGCTTGGTTG | 0.97 |
| ATAAGTGGTA | 0.977 |
| CTAATCGTAA | 1.15 |
| GGTCAGGATG | 1.08 |
| AAGTGATGTT | 1.04 |
| TACGCGCTA | 1.87 |
| CGATTCCCC | 1.07 |
| CTAATTATAT | 1.02 |
| CGGGCGTTCA | 1.01 |
| TACATCTTAA | 1.01 |
| ACAGCATCCC | 1.23 |
| CATGCGTTGC | 1.04 |
| GTTAAGTAAA | 1.01 |
| ATAATCTTTT | 1 |
| CCAGTCACAC | 1.09 |
| GATTCCTA | 1.01 |

| Sequence | switch fluorescence ratio |
| --- | --- |
| ACTGGTGTAT | 0.99 |
| CTTGGTCTTA | 0.96 |
| GTGGTCGTGG | 1 |
| TGCCAAGAGG | 1 |
| GCCTCGTGAG | 0.995 |
| ATCTTTGCGG | 1.02 |
| CGCCTTCATT | 0.947 |
| GATCATATCT | 1.04 |
| TAAGGCCTCC | 1.04 |
| CGCTGGTTCG | 1.05 |
| GTGCTAATAT | 1.03 |
| GGGGACGATC | 1.04 |
| GAATCGGGTT | 0.976 |
| GCCGTATGTC | 0.964 |
| TCTAGGGGAC | 1.05 |
| TACTCAGGAG | 1.03 |
| CATTTGTCAT | 1.01 |
| GCTTGCCAGG | 1.09 |
| CGGGAGAGTG | 0.986 |
| TTAGGGGGA | 1.01 |
| AGGAATGGCG | 0.935 |
| GCCGGTTTGC | 0.982 |
| CGTGCTGTCA | 1.01 |

| Sequence | switch fluorescence ratio |
| --- | --- |
| TGCGCACCTT | 1.02 |
| TGATTACGGG | 1.06 |
| GCTAGATGGT | 0.965 |
| AGGCTAGATA | 0.99 |
| AGGGAGTGAG | 0.992 |
| TGGTCATCCG | 1.01 |
| TGGCTCCG | 1.09 |
| TAGTAAATCT | 1.04 |
| CTAAAACGTA | 1.06 |
| GGGGACCGC | 1.06 |
| CAGGTCAT | 0.967 |
| ATTATAATGG | 0.963 |
| TGTTTTCTGC | 1.01 |
| AACGATTTGA | 0.998 |
| TCCCGCCAAA | 1.74 |
| GTTTAAGAAG | 1.01 |
| ACCATGTGTA | 1.01 |
| TTCGAACCTA | 0.994 |
| AGCCGACACA | 1.01 |
| GGCACCTTCA | 1.95 |
| GAGCCGCTAT | 1.19 |
| ACGACCCCGC | 1.67 |
| CTGGGATCCC | 1.02 |

| Sequence | switch fluorescence ratio |
| --- | --- |
| ATAATGATTC | 1.01 |
| GAATATTACG | 1.01 |
| CGGGTGACAT | 1 |
| ATCGACGCT | 1.74 |
| TTATGTGGTC | 0.946 |
| TTTAACTACC | 1.2 |
| GAGGAAAGCT | 1.23 |
| TCTGTCCCCT | 1.01 |
| AAAGTCCAGG | 1.27 |
| TCGTGTCGGT | 0.992 |
| CGCACCCGGT | 1.53 |
| TCTCCCCGGA | 1.09 |
| GGTATGGCGG | 0.978 |
| GACTGGCATG | 0.97 |
| AGTTGGTGCT | 1.03 |
| ACATGTTTGA | 1.02 |
| GTCAGCGCAT | 1.12 |
| CTTTTTCGTT | 0.998 |
| TTGGACCGTC | 1.03 |
